Assay results taken from publication PMC9369162, “Substrates of the Human Brain Proton-Organic Cation Antiporter and Comparison with Organic Cation Transporter 1 Activities” (International Journal of Molecular Sciences, 2022).
Values joined by “and” are separate entries in the source; they are usually repeats but may differ in a detail not shown here. Equal values may be shown once.

Key:
H + OC antiporter [1] = test: Trans-stimulation (antiport) with diphenhydramine as probe substrate in hCMEC/D3 cells; type: cell-based, human; conditions: intracellular diphenhydramine after 2 min incubation with substrate over without substrate
H + OC antiporter [2] = test: Trans-stimulation (antiport) with MDAI as probe substrate in hCMEC/D3 cells; type: cell-based, human; conditions: intracellular MDAI after 2 min incubation with substrate over without substrate
H + OC antiporter [3] = test: Concentration-dependent uptake into hCMEC/D3 cells (transport kinetics); conditions: for Km / Vmax / KM: 2 min uptake, after subtraction of linear passive-diffusion component; for Km / KM: 0.1–1000 µM; for Intrinsic Clearance: ratio of Vmax over KM
H + OC antiporter [4] = test: Cis-inhibition of substrate uptake into hCMEC/D3 cells by diphenhydramine, imipramine or memantine

SMILES	DPH Antiport Ratio (H + OC antiporter [1])	Km (H + OC antiporter [3]) [µM]	Vmax (H + OC antiporter [3])	further results
COc1ccc2c3c1O[C@H]1[C@@H](O)CC[C@H]4[C@@H](C2)N(C)CC[C@@]341 [Dihydrocodeine]	0.52	–	–	MDAI Antiport Ratio (H + OC antiporter [2]): 0.87
COc1ccccc1N1CCN(CCCNc2cc(=O)n(C)c(=O)n2C)CC1 [Urapidil]	–	82.5	1305 pmol × mg Protein^−1 × min^−1	–
CN[C@@H](C)[C@H](O)c1ccccc1 [Ephedrine]	–	33.5	–	–
COc1ccc2c3c1O[C@H]1C(=O)CC[C@@]4(O)[C@@H](C2)N(C)CC[C@]314 [Oxycodone]	–	71.4	1900 pmol × mg Protein^−1 × min^−1	–
COCCc1ccc(OCC(O)CNC(C)C)cc1 (centres unmarked) [Metoprolol]	–	–	Only linear component of uptake observed	KM (H + OC antiporter [3]): Only linear component of uptake observed; Intrinsic Clearance (H + OC antiporter [3]): Only linear component of uptake observed
Nc1nc2c(ncn2COCCO)c(=O)[nH]1 [Acyclovir]	0.87	–	–	MDAI Antiport Ratio (H + OC antiporter [2]): 0.94
CCOC(=O)C1(c2ccccc2)CCC=CC1N(C)C (centres unmarked) [Tilidine]	0.54	–	–	MDAI Antiport Ratio (H + OC antiporter [2]): 0.80
CN(C)CCC[C@@]1(c2ccc(F)cc2)OCc2cc(C#N)ccc21 [Escitalopram]	–	47	2356 pmol × mg Protein^−1 × min^−1	–
CN(C)CCC=C1c2ccccc2COc2ccccc21 [Doxepin]	–	36.3	2661 pmol × mg Protein^−1 × min^−1	–
CNCCC(Oc1ccc(C(F)(F)F)cc1)c1ccccc1 (centres unmarked) [Fluoxetine]	–	80.2	5070 pmol × mg Protein^−1 × min^−1	–
CCC1(c2cccc(O)c2)CCCCN(C)C1 (centres unmarked) [Meptazinol]	–	1460	15,759 pmol × mg Protein^−1 × min^−1	–
CC(C)(C)NCC(O)c1cc(Cl)c(N)c(Cl)c1 (centres unmarked) [Clenbuterol]	–	51.1	1412 pmol × mg Protein^−1 × min^−1	–
CN(C)CCCC1(c2ccc(F)cc2)OCc2cc(C#N)ccc21 (centres unmarked) [Citalopram]	–	12.9	838 pmol × mg Protein^−1 × min^−1	Km (H + OC antiporter [3]; listed as citalopram): < 30 µM
CN(C)CCc1c[nH]c2ccc(C[C@H]3COC(=O)N3)cc12 [Zolmitriptan]	1.03	–	–	MDAI Antiport Ratio (H + OC antiporter [2]): 1.45
COC(=O)C(c1ccccc1)C1CCCCN1 (centres unmarked) [Methylphenidate]	–	78.9	1142 pmol × mg Protein^−1 × min^−1	–
CC12CC3CC(C)(C1)CC(N)(C3)C2 [Memantine]	–	28.7	1002 pmol × mg Protein^−1 × min^−1	Km (H + OC antiporter [3]; listed as memantine): 29 µM and < 30 µM
Cn1c(=O)c2[nH]cnc2n(C)c1=O [Theophyllin]	0.90	–	–	MDAI Antiport Ratio (H + OC antiporter [2]): 0.86
NC(=O)c1cnccn1 [Pyrazinamide]	–	–	Only linear component of uptake observed	inhibition of uptake by the three inhibitors (diphenhydramine, imipramine, memantine) (H + OC antiporter [4]): not inhibited by the three inhibitors; KM (H + OC antiporter [3]): Only linear component of uptake observed; Intrinsic Clearance (H + OC antiporter [3]): Only linear component of uptake observed
CCN(CC)CCNC(=O)c1cc(Cl)c(N)cc1OC [Metoclopramide]	–	118	1671 pmol × mg Protein^−1 × min^−1	–
COc1cc(OC)c(C(=O)CCCN2CCCC2)c(OC)c1 [Buflomedil]	0.53	–	–	MDAI Antiport Ratio (H + OC antiporter [2]): 0.22
CNC1(c2ccccc2Cl)CCCCC1=O (centres unmarked) [Ketamine]	0.36	–	–	–
CN(C)CCC=C1c2ccccc2CCc2ccccc21 [Amitriptyline]	–	286	8752 pmol × mg Protein^−1 × min^−1	–
